Experimental data as given in article PMC4336329 (PLoS ONE, 2015).
Hit rate of the full screen: of about 310,000 compounds, about 2,200 (0.71%) showed an effect of 50% or more. The effect is printed as a negative number. The list shows a part of the results.

target: human ether-à-go-go-related gene (hERG) potassium channel (human, UniProt Q12809); assay: primary screen, population patch clamp on CHO cells stably expressing hERG
Sequence (Q12809 whole entry, looked up): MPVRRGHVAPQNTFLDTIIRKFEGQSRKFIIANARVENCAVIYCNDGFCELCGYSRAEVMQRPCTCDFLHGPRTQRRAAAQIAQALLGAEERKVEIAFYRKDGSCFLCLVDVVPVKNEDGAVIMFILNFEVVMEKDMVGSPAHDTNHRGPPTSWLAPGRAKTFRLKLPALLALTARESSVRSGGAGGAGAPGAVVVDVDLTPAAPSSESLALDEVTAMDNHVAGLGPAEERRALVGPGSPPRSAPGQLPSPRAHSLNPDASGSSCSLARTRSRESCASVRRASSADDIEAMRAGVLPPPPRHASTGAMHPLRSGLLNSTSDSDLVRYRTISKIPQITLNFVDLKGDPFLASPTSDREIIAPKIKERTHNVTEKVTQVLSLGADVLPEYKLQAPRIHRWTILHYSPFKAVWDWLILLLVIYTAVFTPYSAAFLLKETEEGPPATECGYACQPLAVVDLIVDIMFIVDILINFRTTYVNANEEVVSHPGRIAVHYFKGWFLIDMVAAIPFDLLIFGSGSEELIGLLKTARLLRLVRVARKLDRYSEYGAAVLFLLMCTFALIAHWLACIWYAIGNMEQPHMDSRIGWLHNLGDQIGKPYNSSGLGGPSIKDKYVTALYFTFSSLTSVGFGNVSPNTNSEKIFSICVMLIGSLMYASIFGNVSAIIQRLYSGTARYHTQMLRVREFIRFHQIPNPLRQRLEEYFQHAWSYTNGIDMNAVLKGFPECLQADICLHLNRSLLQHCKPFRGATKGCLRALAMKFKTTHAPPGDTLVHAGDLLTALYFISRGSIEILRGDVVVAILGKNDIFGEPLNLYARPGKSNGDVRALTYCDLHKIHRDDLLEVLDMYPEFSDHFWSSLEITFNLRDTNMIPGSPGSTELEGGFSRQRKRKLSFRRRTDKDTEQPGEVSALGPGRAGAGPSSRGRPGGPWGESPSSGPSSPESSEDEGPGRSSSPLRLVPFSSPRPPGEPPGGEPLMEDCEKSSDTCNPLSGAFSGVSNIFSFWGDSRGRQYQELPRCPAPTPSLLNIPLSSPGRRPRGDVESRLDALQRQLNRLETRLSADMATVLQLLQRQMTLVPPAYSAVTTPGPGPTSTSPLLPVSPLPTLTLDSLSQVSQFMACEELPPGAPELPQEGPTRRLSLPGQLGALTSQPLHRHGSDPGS

Going from `COc1ccc(CN(C)CC(=O)Nc2ccccc2C(=O)NC2CC2)cc1OC` to `COc1ccc(C(=O)NNS(=O)(=O)c2ccccc2)cc1OC`, the “hERG current change (%, negative = inhibition) at 1uM” value rises from -3.84% to 9.24%.

Compared with `CCOc1ccc(N/C(N)=N/c2nc(C)c(C)c(=O)[nH]2)cc1`, `C=CCOc1ccc(C(=O)Nc2ccc(OCC)cc2)cc1` is higher in “hERG current change (%, negative = inhibition) at 1uM” value: 8.39% for the first, 14.3% for the second.

First: CN(C)S(=O)(=O)c1ccc(NC(=O)c2cc(F)c(F)cc2Cl)cc1
Second: CCOc1ccccc1OCC(=O)Nc1ccc(S(=O)(=O)N(C)C)cc1
The “hERG current change (%, negative = inhibition) at 1uM” value of the first is lower: -1.82% for the first, 7.05% for the second.

Compared with `COCc1ccc(C(=O)N2CCCC(Nc3ccc(C(C)C)cc3)C2)o1` (centres unmarked), `CC(C(=O)NCC1CCCCC1)N(C)Cc1ccc(Br)cc1` (centres unmarked) is higher in “hERG current change (%, negative = inhibition) at 1uM” value: 3.15% for the first, 15% for the second.

Going from `Cc1nc2ccccc2n1C(=O)c1ccccc1[N+](=O)[O-]` to `O=[N+]([O-])c1ccc(/C=N/n2cnc3ccccc32)s1`, the “hERG current change (%, negative = inhibition) at 1uM” value falls from 3.81% to 3.01%.

First: O=C(CCNS(=O)(=O)c1ccc(Br)cc1)NCc1ccc(F)cc1
Second: O=C(Nc1ccc(S(=O)(=O)NCCc2ccccc2)cc1)c1ccc(Br)o1
The “hERG current change (%, negative = inhibition) at 1uM” value of the first is lower: 1.29% for the first, 5.88% for the second.

First: COCCCNC(=O)CSC1=Nc2ccccc2C2=NC(Cc3c[nH]c4ccccc34)C(=O)N12 (centres unmarked)
Second: COCCCN(C(=S)NC(=O)c1ccc(Br)cc1)c1c(N)n(Cc2ccccc2)c(=O)[nH]c1=O
The “hERG current change (%, negative = inhibition) at 1uM” value of the first is lower: 9.24% for the first, 12% for the second.

Going from `Cc1cc(C)cc(OCc2nnc(SCC(=O)OC3CCCCC3)o2)c1` to `O=C(NCc1nnc(SCC(=O)N2CCCCC2)o1)c1ccc(F)cc1`, the “hERG current change (%, negative = inhibition) at 1uM” value rises from -0.111% to 14.7%.

First: CCn1c(=O)n(CC)c2cc(N3CCCC3)c(NC(=O)c3ccccc3F)cc21
Second: Cc1ccccc1NS(=O)(=O)c1cc(C(=O)N2CCCC2)ccc1C
The “hERG current change (%, negative = inhibition) at 1uM” value of the first is lower: 6.41% for the first, 8.59% for the second.

Going from `COC(c1ccccc1)c1nnc(CCC(=O)N2CCN(Cc3cccs3)CC2)o1` (centres unmarked) to `COc1ccc(N2CCN(C(C)=C3C(=O)c4ccccc4C3=O)CC2)cc1`, the “hERG current change (%, negative = inhibition) at 1uM” value falls from 11.8% to -3.55%.

First: CCC(C)NC(=O)Cc1c(C)c2cc3c(cc2oc1=O)OC(C)(C)CC3 (centres unmarked)
Second: CCCCN(C)CCNC(=O)C(=O)c1c(C)[nH]c2ccccc12
The “hERG current change (%, negative = inhibition) at 1uM” value of the first is higher: 15.9% for the first, 5.78% for the second.

Going from `CC(C)Nc1nc(Cl)nc(NCCOc2ccccc2)n1` to `Cc1ccc(OCCCNC2CCCC2)cc1`, the “hERG current change (%, negative = inhibition) at 1uM” value falls from 10% to 6.22%.

First: OC(C#CCCN1CCCCC1)(c1ccccc1)c1ccccc1
Second: O=C(CCNC(=O)Cn1ccc2ccccc2c1=O)NCCN1CCN(c2ccccc2F)CC1
The “hERG current change (%, negative = inhibition) at 1uM” value of the first is lower: 1.64% for the first, 9.65% for the second.

Compared with `CC(=O)OC1COC(N2CCc3cc(Br)c([N+](=O)[O-])cc32)C(OC(C)=O)C1OC(C)=O` (centres unmarked), `Cc1ccc(C(=O)COC(=O)CNC(=O)Cc2ccccc2)cc1[N+](=O)[O-]` is lower in “hERG current change (%, negative = inhibition) at 1uM” value: 15.2% for the first, 14.1% for the second.

Going from `O=C(O)Cc1ccc(NC(=O)C2CCCCC2C(=O)O)cc1` (centres unmarked) to `CC(NC(=O)COC(=O)C1CCC1)c1ccccc1` (centres unmarked), the “hERG current change (%, negative = inhibition) at 1uM” value falls from 17.7% to 2.37%.

First: COC(=O)c1ccc(C(=O)NC(=S)Nc2nc3c(s2)CC(C)CC3)cc1 (centres unmarked)
Second: COc1ccc(C(=O)NC(=O)COC(=O)c2ccc(C)o2)cc1
The “hERG current change (%, negative = inhibition) at 1uM” value of the first is higher: 4.92% for the first, -0.956% for the second.

Compared with `CCN(CC)CCCNC(=S)Nc1ccc(Br)cc1`, `Fc1ccc(NC(=S)NCc2ccccn2)cc1` is higher in “hERG current change (%, negative = inhibition) at 1uM” value: -8.09% for the first, 17.2% for the second.

Compared with `CCCCn1c(N)c(N(CCOC)C(=O)c2ccc(F)c(S(=O)(=O)N3CCOCC3)c2)c(=O)[nH]c1=O`, `CC(C)(C)c1ccc(/C=C2\SC(=O)N(CCNC(=O)c3cccc(S(=O)(=O)N4CCOCC4)c3)C2=O)cc1` is higher in “hERG current change (%, negative = inhibition) at 1uM” value: 9.04% for the first, 28.4% for the second.

Going from `CCOc1ccc(C(=O)Nc2cc(-c3nc4ccccc4[nH]3)ccc2C)cc1[N+](=O)[O-]` to `CCOC(=O)c1ccc(NCc2nc3ccccc3n2C)cc1`, the “hERG current change (%, negative = inhibition) at 1uM” value rises from -6.65% to 3.79%.

First: N#Cc1ccc(NC(=O)CN2CCCCCC2)cc1Cl
Second: FC(F)(F)c1cccc(NC(=S)N2CCCCCC2)c1
The “hERG current change (%, negative = inhibition) at 1uM” value of the first is lower: 0.805% for the first, 10.8% for the second.

First: CCOc1nnnc2c1sc1nc(N3CCOCC3)c3c(c12)CCCC3
Second: COc1ccc(Nc2nc(OC)nc(N3CCOCC3)n2)cc1
The “hERG current change (%, negative = inhibition) at 1uM” value of the first is higher: 3.32% for the first, -0.935% for the second.

Going from `COc1ccc(N(CC(=O)Nc2ccccc2C)S(=O)(=O)c2c(C)[nH]c(=O)[nH]c2=O)cc1` to `COc1ccc(NS(=O)(=O)c2cc(S(C)(=O)=O)ccc2C)cc1`, the “hERG current change (%, negative = inhibition) at 1uM” value rises from 11.5% to 14.8%.

Compared with `C=CCn1c(SCC(=O)c2ccc(OC)cc2)nnc1C(C)NC(=O)c1cccs1` (centres unmarked), `Cn1c(SCC(=O)c2ccc3c(c2)OCO3)nnc1C1COc2ccccc2O1` (centres unmarked) is lower in “hERG current change (%, negative = inhibition) at 1uM” value: -1.46% for the first, -18.5% for the second.

First: CC(NC(=O)C1CCCN(S(=O)(=O)c2cccc3nonc23)C1)c1ccccc1 (centres unmarked)
Second: COc1ccc(NC(=O)CSc2nc3ccccc3c(=O)n2CCCN2CCC(C)CC2)c(OC)c1
The “hERG current change (%, negative = inhibition) at 1uM” value of the first is higher: -8.84% for the first, -72.1% for the second.

Compared with `Cc1ccc(C2NC(=NCc3ccccc3)Nc3nc(C)cc(=O)n32)cc1` (centres unmarked), `Cc1ccc(NC(=O)c2ccco2)c(NC(=O)CN2C(=O)c3ccccc3C2=O)c1` is lower in “hERG current change (%, negative = inhibition) at 1uM” value: 12% for the first, 4.77% for the second.

Going from `CNC(=O)c1c(C)[nH]c(=S)c(C#N)c1-c1ccco1` to `CC(=O)CCc1c(C)[nH]c2ccccc2c1=O`, the “hERG current change (%, negative = inhibition) at 1uM” value rises from 4.79% to 14%.

Compared with `Cc1c2cnn(CC(=O)NCc3ccccn3)c(=O)c2c(C)n1Cc1ccccc1`, `O=C(Cn1[nH]c(=O)c2ccccc2c1=O)NCc1cccnc1` is higher in “hERG current change (%, negative = inhibition) at 1uM” value: 8.23% for the first, 18.2% for the second.

Compared with `CC(=O)N1CCN2C(=O)C1CCCC(=O)c1cc(C3CCCCC3)ccc12` (centres unmarked), `CCC(C)(C)NC(=O)C1CCCN1C(=O)NC1CCCCC1` (centres unmarked) is higher in “hERG current change (%, negative = inhibition) at 1uM” value: -3.94% for the first, 13.3% for the second.

Going from `O=C(CO/N=C/c1ccc(Cl)cc1Cl)NNC(=O)c1cccc(Cl)c1` to `COc1cc(Br)cc(/C=N/NC(=O)Cc2ccccc2)c1O`, the “hERG current change (%, negative = inhibition) at 1uM” value falls from 13.2% to 12.3%.

Compared with `CCOC(=O)CNC(=O)C1(c2ccccc2)CCCC1`, `CCOc1ccccc1C(=O)NCC(=O)N(C)Cc1cccnc1` is higher in “hERG current change (%, negative = inhibition) at 1uM” value: 9.01% for the first, 17.2% for the second.

First: CCOc1ccc(NC(=O)c2ccccc2OCC(=O)c2ccccc2)cc1
Second: CC(=O)Nc1ccccc1-c1nc2ccccc2nc1OCC(=O)c1ccc(Cl)cc1
The “hERG current change (%, negative = inhibition) at 1uM” value of the first is higher: 14.1% for the first, 8.15% for the second.

Compared with `Cc1cccc(N(CC(=O)NCc2ccco2)C(=O)CCC(=O)Nc2nccs2)c1`, `Cc1ccc(NC(=O)CN(Cc2ccco2)Cc2ccccc2O)cc1C` is lower in “hERG current change (%, negative = inhibition) at 1uM” value: 17.6% for the first, 10.9% for the second.

Going from `CC(=O)c1cccc(N2C(=NC(=O)C3CC3)SC3CS(=O)(=O)CC32)c1` (centres unmarked) to `COc1ccc(C)cc1NC(=O)CCCN1C(=O)C2CC=CCC2C1=O` (centres unmarked), the “hERG current change (%, negative = inhibition) at 1uM” value falls from 9.61% to 1.78%.

First: COc1cccc(-c2nnn(CC(=O)Nc3ccc(C)cc3C)n2)c1OC
Second: COc1ccc(C(=O)Nc2cc(C)on2)cc1OC
The “hERG current change (%, negative = inhibition) at 1uM” value of the first is lower: 3.24% for the first, 12.3% for the second.

First: Cn1c(=O)c(=O)n(C)c2cc(S(=O)(=O)CCC(=O)Nc3ccc(F)cc3)ccc21
Second: Cn1c(N)c(C(=O)COC(=O)CSc2ccc3ccccc3c2)c(=O)n(C)c1=O
The “hERG current change (%, negative = inhibition) at 1uM” value of the first is higher: 8.27% for the first, 7.9% for the second.

Compared with `CCN(CC)CCN(C(=O)c1ccc2ccccc2c1)c1nc2ccc(F)cc2s1.Cl`, `O=C(COC(=O)/C=C/c1nc2ccccc2s1)Nc1cccc2ccccc12` is lower in “hERG current change (%, negative = inhibition) at 1uM” value: 12% for the first, 4.16% for the second.

First: Cc1ccc(OCc2nc(-c3ccc(-n4cccc4)cc3)no2)cc1C
Second: Cc1ccc(C(=O)c2cn(-c3ccc(F)c(Cl)c3)nn2)cc1
The “hERG current change (%, negative = inhibition) at 1uM” value of the first is higher: 3.71% for the first, -0.208% for the second.

Compared with `Cc1ccccc1Oc1ncnc(N)c1[N+](=O)[O-]`, `Cc1cc(C)nc(NC(=O)c2c(-c3ccccc3Cl)noc2C)c1` is lower in “hERG current change (%, negative = inhibition) at 1uM” value: 12.4% for the first, 10.9% for the second.

First: CCn1c(=O)cc(N2CCCCC2)[nH]c1=O
Second: Cc1cc(C)cc(NC(=O)C(=O)NCCCN2CCOCC2)c1
The “hERG current change (%, negative = inhibition) at 1uM” value of the first is higher: 16.1% for the first, 4.8% for the second.

Going from `Cn1c(=O)n(C)c2cc(/C=N/NC(N)=S)ccc21` to `Cn1c2ccccc2c(=O)c2cc(C#Cc3ccsc3)ccc21`, the “hERG current change (%, negative = inhibition) at 1uM” value falls from 16.2% to 12.8%.

Compared with `O=S(=O)(NC1=NCCCCCC1)c1cccs1`, `Cc1cc(C)nc(NNC2=CC(=[N+]3CCCCC3)CC(C)(C)C2)n1.[I-]` is lower in “hERG current change (%, negative = inhibition) at 1uM” value: 14.1% for the first, -1.54% for the second.

Going from `Cc1ccc(NC(=O)N2C(=O)C3(OCCO3)c3ccccc32)cc1` to `CC1=[N+](CC(=O)c2ccccc2)CCn2cccc21.[Br-]`, the “hERG current change (%, negative = inhibition) at 1uM” value falls from 16.1% to 11.3%.

First: COc1ccc(OCC(=O)c2c[nH]c3ccccc23)cc1
Second: C=CCc1cc(OC)ccc1OCCCCn1cncn1.O=C(O)C(=O)O
The “hERG current change (%, negative = inhibition) at 1uM” value of the first is lower: 10.6% for the first, 15.1% for the second.

Compared with `O=C(CCCC(=O)NCC1CCCO1)NCC1CCCO1` (centres unmarked), `COc1cccc(CNCCN2CCOCC2)c1OC` is higher in “hERG current change (%, negative = inhibition) at 1uM” value: 3.68% for the first, 5.08% for the second.

With `CN(C)[C@@H]1C(=O)C(C(N)=O)=C(O)[C@@]2(O)C(=O)C3=C(O)c4c(O)cccc4[C@@](C)(O)[C@H]3[C@H](O)[C@@H]12.O` the “hERG current change (%, negative = inhibition) at 1uM” value was 11.9%.
